Data: PubChem BioAssay AID2546 (National Center for Advancing Translational Sciences (NCATS), 2010)
Among all 310,000 compounds or so, about 11,000 (3.5%) were called active. The shares of active, inactive and inconclusive entries below differ from those in the screen. Calls follow the shape of the dose curve; as a rule, active = well fitted inhibition curve with a large enough effect; inconclusive = small, poorly fitted or top-dose-only effect, or effect the other way; inactive = flat fitted curve, though single readings scatter. No potency is given beside an inconclusive call; the fits are too rough.

Test: VP16 counterscreen qHTS for inhibitors of ROR gamma transcriptional activity;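 also: Gal4-VP16 expression switched on by copper sulfate through the metallothionein promoter; nearly all actives have a fitted effect of over 50% in size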
Settings: Drosophila S2 Gal4-VP16 UAS-luciferase, luminescence, 20 h; activity, negative = inhibition: at 53.6 µM (top of the series)
% is scaled to controls: 0 for no effect and ±100 for the full control effect; potency is read from the fitted curve at half-maximal effect; tags tell the direction and shape of the fitted curve.

Compound	Potency	activity, negative = inhibition
N#Cc1c(Oc2ccc3ccccc3c2)sc(C(=O)c2ccccc2)c1N	inactive	
Cc1ccccc1C(=O)NC1CCN(CC(=O)Nc2ccc3c(c2)OCCO3)CC1		inactive: -2.4% [at 10 µM]
O=C1C2=C(C(=O)c3ccccc31)C1O[C@](c3ccsc3)(Cc3c1ccc1ccccc31)O2	inconclusive [inhibitor, single point]	
Cn1cc(Br)c(C(=O)Nc2sc3c(c2C#N)CCC3)n1	inactive	
Cc1cccc(C(=O)Nc2nccs2)c1[N+](=O)[O-]	inconclusive [inhibitor, single point]	
COc1ccc(C(=O)Nn2c(SCc3ccc([N+](=O)[O-])cc3)nc3ccccc3c2=O)cc1	inconclusive [inhibitor, partial curve]	
COc1ccc(OC)c(N2CC(O)=C(c3nc4ccccc4s3)C2=N)c1	inactive	
CC(C)(C)NC(=O)C(c1ccc(I)cc1)N(CCN1CCOCC1)C(=O)CCCNC(=O)c1ccccc1 (configuration not stated)	inactive	
Cc1onc(-c2ccccc2)c1C(=O)Nc1nnc(CC(C)(C)C)s1	inconclusive [inhibitor, single point]	
COc1cc(C(=O)/C=C/c2cccnc2)ccc1O	inconclusive [inhibitor, single point]	
CC(C)(C)c1cccc(Oc2nn[nH]n2)c1	inactive	
COc1ccc(Nc2nc(S(=O)(=O)c3ccc(C)cc3)c(Cl)s2)cc1	inconclusive [inhibitor, single point]	
O=C(CSCc1ccc(Cl)c(Cl)c1)Nc1c[nH]c(=O)[nH]c1=O	inconclusive [inhibitor, single point]	
O=C(/C=C/c1ccc(Cl)cc1Cl)NC(=S)Nc1ccccn1	active: 5.01 µM	
CCOc1ccc2[nH]c3c(N4CCc5ccccc5C4)ncnc3c2c1	inconclusive [inhibitor, single point]	
Cn1c(CC(=O)Nc2ccccc2)nnc1SCC(=O)c1ccccc1	inconclusive [inhibitor, single point]	
CC(C)(C)C(=O)Cn1c(=N)n(Cc2ccccc2Cl)c2ccccc21	inconclusive [inhibitor, single point]	
Cc1ccccc1-n1c(-c2csc(C)c2C)n[nH]c1=S	active: 6.31 µM	
NS(=O)(=O)c1ccc(NCc2cc(Cl)ccc2OCc2ccccc2F)cc1	inconclusive [inhibitor, single point]	
O=[N+]([O-])c1ccc(Oc2ccc(S(=O)(=O)N3CCCCC3)cc2)cc1	inconclusive [inhibitor, single point]	
CCN1CCc2nc3ccccc3c(C(=O)Nc3ccc(C#N)cc3)c2C1	inactive	
COc1ccc2[nH]c3c(c2c1)CCN1C(=O)N([C@@H](C)C(=O)NC2CC2)C(=O)[C@]31C	inactive	
Cc1nc2ccccc2c(N)c1C(=O)/C=C/c1ccccc1	inconclusive [inhibitor, single point]	
Cc1ccc(-c2cc(-c3ccccc3C)[nH]n2)c(O)c1	active: 1.41 µM	

Compound	Potency	activity, negative = inhibition
CCn1c2ccccc2c2cc(NC(=O)C(C)Oc3ccc(OC)cc3)ccc21 (configuration not stated)	inactive	
Cc1ccc(C)c(NC(=S)N2CCN(c3ccccn3)CC2)c1	inconclusive [inhibitor, single point]	
Cc1ccc(C(=O)CCS(=O)(=O)c2ccc(Br)cc2)cc1	inconclusive [inhibitor, single point]	
COc1ccc(NC(=O)CCS(=O)(=O)c2cc3c(cc2Cl)NC(=O)CO3)cc1OC	inactive	
CCN(CC)c1ccc(/C=N\NC(=O)c2cccc3cc[nH]c23)cc1	active: 17.8 µM	
Cc1ccc(/C=C(\NC(=O)c2ccc(C)cc2)c2nc(=S)[nH][nH]2)cc1	inconclusive [inhibitor, single point]	
Cc1ccc(/C=N/n2c(C3CCCCC3)n[nH]c2=S)s1	active: 3.16 µM	
N/C(=N\OC(=O)c1ccc(Cl)c(Cl)c1)c1ccccn1	inconclusive [inhibitor, single point]	
COC(=O)c1cccc(NC(=O)c2nn(C(C)C)c(=O)c3ccccc23)c1	inactive	
Cc1ccc(S(=O)(=O)Nc2ccc(NC(=O)Nc3cccc(C(F)(F)F)c3)cc2)cc1	inconclusive [inhibitor, single point]	
Cc1nc(-c2ccccc2)sc1-c1ccn[nH]1	inconclusive [inhibitor, single point]	
Cc1cccc(C(=O)N/N=C/c2ccccn2)c1	active: 14.1 µM	
COc1ccc(/C=N/NC(=O)c2nonc2C)cc1	inconclusive [activator, full curve, poor fit]	
O=C(N/N=C/c1c[nH]c2ccccc12)c1cccs1	inconclusive [activator, single point]	
C=C(CC)C(=O)c1ccc(OCC(=O)O)c(Cl)c1Cl	inconclusive [inhibitor, single point]	
CC(/C=C/c1ccco1)=N/NC(=O)c1ccccc1Cl	inconclusive [inhibitor, single point]	
Cc1ccc(NC(=S)c2nc3ccccc3[nH]2)cc1	active: 7.94 µM	
CC(C)(CO)Nc1nc(Cl)nc(NC2CCCCC2)n1	inactive	
Cc1oc2c(F)c(F)c(F)c(F)c2c1S(=O)(=O)Nc1cccc(C(F)(F)F)c1	inconclusive [inhibitor, single point]	
COc1cc(C=O)ccc1OS(=O)(=O)c1ccc(NC(C)=O)cc1	active: 25.1 µM	
Cc1c(-c2nc(-c3cccnc3)no2)cccc1[N+](=O)[O-]		inactive: -22.6% [at 10 µM]
N/C(=N\OC(=O)CCc1ccccc1)c1ccccc1Cl	inconclusive [activator, full curve]	
Cc1nonc1C(=O)N/N=C/c1ccc([N+](=O)[O-])o1	inconclusive [inhibitor, single point]	
